No constants are given. Whether binding was seen depends on the method and setting. Some entries that bind do so weakly or less than the wild type.

By UniProt entry, the sequences of proteins in these tests, tags left out. Where a name states a change or a piece, a line headed by the entry shows the natural chain unless it says otherwise.
UniProt P03744: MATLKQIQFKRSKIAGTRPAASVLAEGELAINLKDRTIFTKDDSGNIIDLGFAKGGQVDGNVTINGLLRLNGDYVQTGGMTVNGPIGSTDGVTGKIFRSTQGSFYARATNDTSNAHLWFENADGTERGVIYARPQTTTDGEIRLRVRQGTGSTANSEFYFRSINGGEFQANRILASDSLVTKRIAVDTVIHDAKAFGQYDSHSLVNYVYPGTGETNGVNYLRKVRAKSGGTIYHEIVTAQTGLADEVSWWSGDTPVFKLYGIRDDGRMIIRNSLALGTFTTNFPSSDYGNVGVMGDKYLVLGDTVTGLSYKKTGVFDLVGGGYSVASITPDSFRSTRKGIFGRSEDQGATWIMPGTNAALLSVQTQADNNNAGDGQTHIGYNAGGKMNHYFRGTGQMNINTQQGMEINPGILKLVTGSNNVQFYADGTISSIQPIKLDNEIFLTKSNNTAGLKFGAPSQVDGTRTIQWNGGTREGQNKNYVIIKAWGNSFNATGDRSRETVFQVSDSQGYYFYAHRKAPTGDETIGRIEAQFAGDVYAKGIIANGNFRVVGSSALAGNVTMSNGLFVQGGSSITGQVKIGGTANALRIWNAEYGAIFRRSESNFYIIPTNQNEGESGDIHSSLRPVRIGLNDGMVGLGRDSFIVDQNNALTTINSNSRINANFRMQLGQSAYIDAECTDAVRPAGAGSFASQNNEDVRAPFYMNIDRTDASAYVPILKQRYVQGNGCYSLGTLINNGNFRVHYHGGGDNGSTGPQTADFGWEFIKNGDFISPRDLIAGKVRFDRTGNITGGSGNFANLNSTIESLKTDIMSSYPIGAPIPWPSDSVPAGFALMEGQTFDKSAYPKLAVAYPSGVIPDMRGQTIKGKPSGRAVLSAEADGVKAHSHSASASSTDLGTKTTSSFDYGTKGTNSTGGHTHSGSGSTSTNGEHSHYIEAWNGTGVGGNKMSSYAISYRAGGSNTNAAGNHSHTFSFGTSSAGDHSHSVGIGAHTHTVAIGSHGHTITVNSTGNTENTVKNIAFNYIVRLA

For the experiment, the target named is T1, OmpC on OmpC^+ E. coli (K12 strain) cells (E. coli K12 (endogenous in E. coli K12 cells)) (UniProt P06996).
T1 sequence: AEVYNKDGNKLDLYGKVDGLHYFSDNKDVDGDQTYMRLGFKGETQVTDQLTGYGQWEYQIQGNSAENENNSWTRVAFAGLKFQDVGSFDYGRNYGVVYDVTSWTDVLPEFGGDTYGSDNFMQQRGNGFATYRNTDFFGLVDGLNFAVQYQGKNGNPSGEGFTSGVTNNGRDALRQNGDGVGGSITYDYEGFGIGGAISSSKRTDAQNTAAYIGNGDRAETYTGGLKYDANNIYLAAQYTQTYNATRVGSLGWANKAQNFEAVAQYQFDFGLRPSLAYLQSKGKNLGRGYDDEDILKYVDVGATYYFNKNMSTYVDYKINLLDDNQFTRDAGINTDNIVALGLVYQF
As to the kind of experiment: binding to whole E. coli cells, pelleting and Western blot; about 10^8 E. coli cells in PBS, about 3 x 10^5 gp37 molecules per cell, 37 °C 2 hr, washed twice, bound gp37 detected with anti-histag antibodies; also at several protein concentrations and with increasing purified E. coli B LPS; only the binder purified. On the technique in general: A western blot detects proteins with antibodies after separation by electrophoresis.
With “Phage T4 LTF needle (gp37; amino acids 799–1026), wild type (from UniProt P03744 799-1026) (domain or fragment)”, the binding entry is recorded as “binds”.
With “gp37 needle (799–1026) G938A (from UniProt P03744 799-1026) (domain or fragment)” the entry was “binds”; with “gp37 needle (799–1026) N937A (from UniProt P03744 799-1026) (domain or fragment)”, “binds”.

(Values after PMC6957217.)
